Data from publication PMC6823378, “Clathrin light chain A drives selective myosin VI recruitment to clathrin-coated pits under membrane tension” (Nature Communications, 2019).
Changes are numbered by the printed parent chain. Numbers in names are those of the source. Results are given in words; binding and its absence hold for the method and conditions named. For part of these data: Binding seen in cells or lysates may run through a third protein. Some entries that bind do so weakly or less than the wild type. For part of these data: Tags and fused reporters may be left off the sequences shown. One block for each molecule: values may come before it. Ends that are not written are not given here.

By UniProt entry, the sequences of proteins in these tests, tags left out.
UniProt Q00610: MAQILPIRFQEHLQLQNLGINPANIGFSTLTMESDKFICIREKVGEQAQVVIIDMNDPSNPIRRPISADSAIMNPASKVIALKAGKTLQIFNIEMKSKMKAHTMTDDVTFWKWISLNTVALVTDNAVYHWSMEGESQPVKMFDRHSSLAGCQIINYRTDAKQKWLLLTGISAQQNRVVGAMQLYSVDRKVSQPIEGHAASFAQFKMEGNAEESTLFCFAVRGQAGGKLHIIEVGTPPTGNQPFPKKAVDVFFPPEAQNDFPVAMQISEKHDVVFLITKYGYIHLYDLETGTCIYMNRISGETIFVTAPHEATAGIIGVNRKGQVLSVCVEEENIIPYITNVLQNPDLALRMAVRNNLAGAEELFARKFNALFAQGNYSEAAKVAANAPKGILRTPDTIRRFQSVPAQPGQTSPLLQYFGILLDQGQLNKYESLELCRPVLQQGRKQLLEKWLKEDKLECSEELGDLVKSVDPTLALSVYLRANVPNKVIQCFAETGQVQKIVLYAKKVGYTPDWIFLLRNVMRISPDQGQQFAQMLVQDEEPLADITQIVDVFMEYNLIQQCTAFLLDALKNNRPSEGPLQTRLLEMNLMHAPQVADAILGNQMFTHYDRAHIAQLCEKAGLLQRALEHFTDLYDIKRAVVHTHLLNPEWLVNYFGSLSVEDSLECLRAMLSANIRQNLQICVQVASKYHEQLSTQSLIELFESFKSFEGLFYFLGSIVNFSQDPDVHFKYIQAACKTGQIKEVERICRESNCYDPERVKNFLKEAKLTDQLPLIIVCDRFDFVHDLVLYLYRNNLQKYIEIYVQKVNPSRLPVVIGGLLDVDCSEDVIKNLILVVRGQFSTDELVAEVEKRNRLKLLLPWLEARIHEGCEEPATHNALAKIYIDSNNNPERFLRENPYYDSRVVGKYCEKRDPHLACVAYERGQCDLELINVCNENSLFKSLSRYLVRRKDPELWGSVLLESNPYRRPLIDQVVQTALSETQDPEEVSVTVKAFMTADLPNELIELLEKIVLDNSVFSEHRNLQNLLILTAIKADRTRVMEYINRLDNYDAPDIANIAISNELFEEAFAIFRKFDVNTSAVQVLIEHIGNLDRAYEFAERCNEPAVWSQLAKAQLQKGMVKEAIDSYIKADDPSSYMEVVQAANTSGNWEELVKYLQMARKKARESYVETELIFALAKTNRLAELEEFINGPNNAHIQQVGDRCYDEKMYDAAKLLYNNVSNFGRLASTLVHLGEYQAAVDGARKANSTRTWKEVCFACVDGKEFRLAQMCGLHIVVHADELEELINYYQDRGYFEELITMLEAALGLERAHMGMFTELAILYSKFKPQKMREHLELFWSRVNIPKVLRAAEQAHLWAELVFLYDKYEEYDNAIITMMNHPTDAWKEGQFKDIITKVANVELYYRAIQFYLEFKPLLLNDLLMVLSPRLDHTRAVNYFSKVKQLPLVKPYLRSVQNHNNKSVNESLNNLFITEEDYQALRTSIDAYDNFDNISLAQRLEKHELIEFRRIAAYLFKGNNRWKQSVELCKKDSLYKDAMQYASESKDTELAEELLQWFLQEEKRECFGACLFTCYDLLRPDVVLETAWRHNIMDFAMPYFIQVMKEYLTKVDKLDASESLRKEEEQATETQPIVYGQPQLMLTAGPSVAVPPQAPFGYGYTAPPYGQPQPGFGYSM

Experiments:
[1] = target: T1, RFP-CLCa wild type (rat) (rat) (UniProt P08081); assay: co-IP; lysates (1 mg, JS buffer) of confluent Caco-2 cells expressing RFP-rat CLCa WT or I54D, depleted of endogenous CLCs by siRNA or mock treated; RFP-Trap 120 min at 4 °C; immunoblot
T1 sequence: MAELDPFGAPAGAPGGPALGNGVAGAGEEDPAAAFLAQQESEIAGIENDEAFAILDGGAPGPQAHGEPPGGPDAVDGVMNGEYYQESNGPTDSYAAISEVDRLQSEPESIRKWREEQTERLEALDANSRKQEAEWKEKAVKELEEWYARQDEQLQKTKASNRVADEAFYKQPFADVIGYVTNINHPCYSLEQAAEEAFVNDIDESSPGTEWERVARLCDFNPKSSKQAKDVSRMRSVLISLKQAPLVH

[2] = target: T2, RFP-CLCa I54D (rat) (rat) (UniProt P08081); assay: as above
T2 sequence: T1 sequence with I54D

[3] = target: myosin VI^998–1131 of the long isoform (myosin VI_(long)), cleaved from GST and purified (human) (UniProt Q9UM54); assay: SEC; 50 μM of each at 1:1 molar ratio, 15 min at 4 °C, Superdex75 (5/150); fractions by SDS-PAGE and Coomassie; both purified
[4] = target: T3, GST-CLCb full length (human) (UniProt P09497); assay: pull-down; competition: GST-CLC protein on GSH beads pre-incubated with 2.5 μM His-Hip1R^346–655 for 1 h at 4 °C in JS buffer, then increasing amounts of myosin VI fragment; Coomassie and immunoblot; both purified
T3 sequence: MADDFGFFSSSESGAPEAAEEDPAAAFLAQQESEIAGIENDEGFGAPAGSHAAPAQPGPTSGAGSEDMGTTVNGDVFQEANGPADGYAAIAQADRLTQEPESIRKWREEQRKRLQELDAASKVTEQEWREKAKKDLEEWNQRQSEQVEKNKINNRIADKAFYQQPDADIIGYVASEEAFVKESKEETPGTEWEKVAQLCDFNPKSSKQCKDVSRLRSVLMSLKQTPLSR

[5] = target: T4, GST-CLCa full length (human) (UniProt P09496); assay: as above
T4 sequence: T1 sequence with A64P, E99Q, T118M, V140I, S160N

GST-CLCa I54D (human) = target: T5, GST-CLCa I54D (human) (UniProt P09496); assay: as above
T5 sequence: T1 sequence with I54D, A64P, E99Q, T118M, V140I, S160N

[6] = target: T3, GST-CLCb full length (human); assay: pull-down; GST-CLC proteins (1.5 μM) on glutathione sepharose beads incubated 1 h at 4 °C in JS buffer with cleaved and purified myosin VI fragments; SDS-PAGE, Coomassie; both purified
[7] = target: T4, GST-CLCa full length (human); assay: as above
[8] = target: GST-myosin VI^1050–1131 (human) (UniProt Q9UM54); assay: pull-down; GST-myosin VI^1050–1131 wild type and mutants on beads with lysates (1 mg) from HEK293T cells; immunoblot with anti-CLCa antibody; only the target purified
[9] = target: GST-myosin VI^1050–1131 with a single substitution of Y1121 (human) (UniProt Q9UM54); assay: as above
[10] = target: myosin VI^1050–1131 of the long isoform, cleaved from GST and purified (UniProt Q9UM54); assay: condition: 380 µM CLCa I54D titrated into 20 µM myosin VI^1050–1131; ITC; 380 µM CLCa WT or I54D titrated into 20 µM Hip1R^346–655 or myosin VI^1050–1131 in the cell; 20 mM Tris-HCl pH 8.0, 150 mM NaCl, 2.5% glycerol, 25 °C; one-set-of-sites model; both purified
GST-CLCa I54A (human) = target: T6, GST-CLCa I54A (human) (UniProt P09496); assay: pull-down; GST-CLC proteins (1.5 μM) on glutathione sepharose beads incubated 1 h at 4 °C in JS buffer with cleaved and purified myosin VI fragments; SDS-PAGE, Coomassie; both purified
T6 sequence: T1 sequence with I54A, A64P, E99Q, T118M, V140I, S160N

GST-CLCa Δ46-61 (human) = target: T7, GST-CLCa Δ46-61 (human) (UniProt P09496); assay: as above
T7 sequence: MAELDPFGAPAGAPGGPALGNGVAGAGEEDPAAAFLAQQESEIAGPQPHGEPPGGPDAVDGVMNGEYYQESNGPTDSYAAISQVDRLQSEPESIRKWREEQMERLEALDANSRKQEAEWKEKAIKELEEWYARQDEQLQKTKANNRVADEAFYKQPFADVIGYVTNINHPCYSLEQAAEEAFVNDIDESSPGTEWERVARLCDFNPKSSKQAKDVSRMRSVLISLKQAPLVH

binding [1]: binds
Molecule: myosin VI of Caco-2 cell lysate (from UniProt Q9UM54 1-1294)

binding [1]: binds
binding [2]: binds
Molecule: clathrin heavy chain (CHC) of Caco-2 cell lysate (from UniProt Q00610 1-1675)

binding [6]: no binding
binding [7]: binds
B3: myosin VI^998–1131 of the long isoform (myosin VI_(long)), cleaved from GST and purified (domain or fragment, human, UniProt Q9UM54 998-1131, looked up)
chain: QQQAVLEQERRDRELALRIAQSEAELISDEAQADLALRRSLDSYPVSKNDGTRPKMTPEQMAKEMSEFLSRGPAVLATKAAAGTKKYDLSKWKYAELRDTINTSCDIELLAACREEFHRRLKVYHAWKSKNKKR
notes: source: E. coli Rosetta (DE3), GST fusion cleaved with PreScission Protease, purified (ion exchange)

binding (GST-CLCa I54A (human)): binds
binding [7]: binds
binding (GST-CLCa Δ46-61 (human)): no binding
B6: myosin VI^1050–1131 of the long isoform, cleaved from GST and purified (domain or fragment, human, UniProt Q9UM54 1050-1131, looked up)
chain: RPKMTPEQMAKEMSEFLSRGPAVLATKAAAGTKKYDLSKWKYAELRDTINTSCDIELLAACREEFHRRLKVYHAWKSKNKKR
notes: 15N- or 13C,15N-labelled in some NMR samples; also called Myo6; source: E. coli Rosetta (DE3) or BL21 (DE3), GST fusion cleaved with PreScission Protease, purified (ion exchange or SEC)

Further lines, the molecule ahead of its results:

B1: GST-CLCa fragment of amino acids 47–97 (domain or fragment, human, UniProt P09496 47-97, looked up)
chain: ENDEAFAILDGGAPGPQPHGEPPGGPDAVDGVMNGEYYQESNGPTDSYAAI
notes: clathrin light chain A (CLCa), human, amino acids 47–97; also called CLCa 47–97; source: E. coli Rosetta (DE3), on glutathione-sepharose beads
binding [3]: binds

B2: His-Hip1R coiled-coil region (amino acids 346–655) (domain or fragment, UniProt O75146 346-655)
chain: GSVKDDRDLQIESLKREVEMLRSELEKIKLEAQRYIAQLKSQVNALEGELEEQRKQKQKALVDNEQLRHELAQLRAAQLEGERSQGLREEAERKASATEARYNKLKEKHSELVHVHAELLRKNADTAKQLTVTQQSQEEVARVKEQLAFQVEQVKRESELKLEEKSDQLEKLKRELEAKAGELARAQEALSHTEQSKSELSSRLDTLSAEKDALSGAVRQREADLLAAQSLVRETEAALSREQQRSSQEQGELQGRLAERESQEQGLRQRLLDEQFAVLRGAAAEAAGILQDAVSKLDDPLHLRCTSSPD
binding [4]: binds
binding [5]: binds
binding (GST-CLCa I54D (human)): binds

B4: CLCa full length, bacterially produced (ITC; reconstitution of cages) (natural protein, human, UniProt P09496 1-248, looked up)
chain: T1 sequence with A64P, E99Q, T118M, V140I, S160N
notes: clathrin light chain A (CLCa), human; Cleavage from GST is told for the cage reconstitution; also called CLCa FL; CLCa WT; source: bacterially produced and cleaved from GST, purified
binding [8]: binds
binding [9]: binds

B5: CLCa I54D full length (ITC) (natural protein, human, UniProt P09496 1-248, looked up)
chain: T1 sequence with I54D, A64P, E99Q, T118M, V140I, S160N
notes: clathrin light chain A (CLCa), human, I54D
binding [10]: no binding
